# The supplement of paper PMC4166925
# ± gives the standard deviation of the averaged measurements. In all, about 33,000 sequences were measured (“E-score (dimensionless, -0.5 to 0.5)”: median about -0.049, highest 2% from about 0.37 on). The list shows a part of the results.
# Test system: T1, PmTbr T-box DNA-binding domain (GST fusion)
# T1 sequence: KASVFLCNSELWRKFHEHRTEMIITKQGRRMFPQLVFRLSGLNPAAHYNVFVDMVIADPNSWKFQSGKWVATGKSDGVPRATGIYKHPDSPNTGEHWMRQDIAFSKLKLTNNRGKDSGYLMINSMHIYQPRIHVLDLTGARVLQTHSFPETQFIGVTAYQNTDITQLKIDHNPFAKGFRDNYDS
# Experiment: PBM E-score of 8-mer (E-score (dimensionless, -0.5 to 0.5)); Tbr is Tbrain of the sea star Patiria miniata (Pm) or the sea urchin Strongylocentrotus purpuratus (Sp); higher = stronger binding preference; most listed sequences are background and not binding sites
# Conditions: the construct has about 5 more residues each side
# How it was run: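 Universal Agilent oligonucleotide arrays, made double-stranded by primer extension, were incubated with 200 nM GST-fused Tbr T-box DNA-binding domain in PBS (pH 7.5). The protein was expressed in BL21 E. coli at 20 °C and purified by glutathione affinity chromatography. After scanning and quantification, the Universal PBM Analysis Suite assigned an enrichment E-score to each ungapped 8-mer, averaged over duplicate arrays.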
row,Sequence,PBM E-score of 8-mer
1,AAATATAT,-0.0943 ± 0.13
2,AACAACCG,-0.0792 ± 0.069
3,CGCAAAAA,0.169 ± 0.015
4,CAAGAATC,-0.114 ± 0.019
5,TGCTGACA,0.217 ± 0.048
6,CCCTGCGG,-0.122 ± 0.032
7,AACACTCT,0.338 ± 0.034
8,AAAAGTGG,0.107 ± 0.0099
9,ACAATGTC,-0.048 ± 0.0089
10,AGTACTAT,-0.14 ± 0.0032
11,CCAAATGC,-0.133 ± 0.013
12,ATTACTCA,0.103 ± 0.035
13,ACTATGCC,-0.0992 ± 0.096
14,TCGGGTCA,-0.0478 ± 0.1
15,CGCTATAA,0.164 ± 0.045
16,AAGCGTGT,0.235 ± 0.017
17,ATCCGCCG,-0.161 ± 0.0068
18,AGTTGTTA,0.388 ± 0.011
19,AGCCAGTG,-0.234 ± 0.027
20,AGTTAACC,-0.135 ± 0.015
21,AGGAGCAT,-0.125 ± 0.048
22,CGAGACGC,-0.126 ± 0.029
23,AATACATT,-0.0798 ± 0.037
24,CGCATAGA,-0.0835 ± 0.0052
25,CACTTGAA,0.115 ± 0.098

row,Sequence,PBM E-score of 8-mer
1,AAACGCTT,-0.09315 ± 2.8e-05
2,TCTTAACA,0.187 ± 0.027
3,CCCGATGA,-0.0463 ± 0.07
4,TATGGCGA,0.00654 ± 0.026
5,ATAGAGAA,-0.171 ± 0.047
6,ACAGGCAC,0.0731 ± 0.097
7,CAGTCAAA,-0.0874 ± 0.11
8,CTAATCGA,-0.231 ± 0.005
9,AATACCGA,-0.134 ± 0.016
10,ACTCTGAA,-0.179 ± 0.023
11,CGTGACTA,0.0654 ± 0.0058
12,CAATGCAG,-0.227 ± 0.0046
13,AGATAAGA,-0.171 ± 0.012
14,CTTACAGA,0.0993 ± 0.0083
15,AGCGCAGC,-0.1817 ± 0.001
16,ACGTAGGC,-0.00647 ± 0.049
17,AGATACCG,-0.182 ± 0.024
18,GGCGTTAC,0.312 ± 0.03
19,ACCTTAGG,0.016 ± 0.015
20,ACGAAGGG,-0.218 ± 0.0031
21,CCGTCACA,0.325 ± 0.024
22,TACTTTCA,0.0461 ± 0.077
23,CTTACATA,-0.124 ± 0.016
24,CAATCGTC,0.0177 ± 0.056
25,AAAGCTCT,-0.13 ± 0.035

row,Sequence,PBM E-score of 8-mer
1,AACCTATC,-0.165 ± 0.17
2,AGCGGAGG,-0.135 ± 0.0056
3,CTTGGCTC,-0.202 ± 0.04
4,CCCCCTTA,-0.343 ± 0.012
5,AGCTTGAC,-0.208 ± 0.03
6,GAATCACA,0.232 ± 0.005
7,CCCTACTC,-0.134 ± 0.033
8,AATCTACA,0.0314 ± 0.048
9,AGTGACAC,0.44 ± 0.0087
10,CGCTTAAC,0.0623 ± 0.0075
11,CAGACGAG,-0.189 ± 0.017
12,CCGCGCAG,-0.0277 ± 0.018
13,CCGTATCG,0.0224 ± 0.023
14,GGGCCACA,0.0589 ± 0.039
15,ATTCGCGC,0.39 ± 0.021
16,CCGTCGTC,0.047 ± 0.066
17,ATTGAATG,-0.259 ± 0.011
18,GACCGATC,-0.0299 ± 0.1
19,AAGGTCCA,-0.146 ± 0.026
20,GTGTTGAA,0.4 ± 0.013
21,CATAGGTC,-0.25 ± 0.059
22,GGGCCCCA,-0.215 ± 0.011
23,AGAAGCCC,-0.257 ± 0.071
24,CGCAGACG,-0.0666 ± 0.0077
25,CAAGTACG,0.0658 ± 0.027

row,Sequence,PBM E-score of 8-mer
1,ATCCTGCA,-0.237 ± 0.013
2,AGTCCTCA,-0.215 ± 0.0072
3,GTCCCCAC,-0.0774 ± 0.077
4,GAGTGGTA,0.0277 ± 0.058
5,ATGTCAAT,0.0294 ± 0.054
6,AGCCTGCG,-0.0619 ± 0.068
7,AATCGAAC,0.0204 ± 0.043
8,ATCTTCGG,-0.149 ± 0.0024
9,GTTACAAC,-0.0431 ± 0.044
10,AAACTAAT,-0.257 ± 0.079
11,ATTTGGGA,-0.249 ± 0.014
12,ACGTGCCT,-0.0451 ± 0.016
13,ATCCCATC,-0.245 ± 0.065
14,GACTAGAA,-0.24 ± 0.018
15,CTTGGGTA,-0.153 ± 0.041
16,ATCGGCGG,0.0203 ± 0.032
17,ACATCAGC,-0.00705 ± 0.011
18,CGGACCCC,-0.3 ± 0.013
19,CTTCGAAC,-0.0549 ± 0.054
20,TATAGGAA,-0.174 ± 0.06
21,GACTCACC,0.018 ± 0.085
22,GCCACTCA,0.138 ± 0.087
23,CAGTTGTC,0.253 ± 0.025
24,GTATCAGA,-0.104 ± 0.043
25,GGACTGCA,-0.0271 ± 0.032

row,Sequence,PBM E-score of 8-mer
1,AGTACCCC,-0.0951 ± 0.01
2,AGGATGGA,-0.248 ± 0.039
3,ATTGCAAT,-0.0891 ± 0.15
4,ATCGACAA,0.222 ± 0.036
5,AGCATGTC,-0.107 ± 0.053
6,GGATAACA,0.2 ± 0.021
7,ACGTTCAA,-0.102 ± 0.12
8,ATATTAGG,-0.156 ± 0.029
9,ATCAAAGA,-0.168 ± 0.0017
10,GATTCGGC,-0.0711 ± 0.029
11,CCCTAGAG,0.0144 ± 0.04
12,GCCTATCC,-0.2 ± 0.0061
13,TAACGACA,0.174 ± 0.015
14,GTAGCTCA,-0.175 ± 0.094
15,AAATACAT,-0.0833 ± 0.0057
16,ACAACTGC,0.2139 ± 0.0011
17,AGGGACCT,-0.0715 ± 0.077
18,ATGATCTG,-0.00895 ± 0.0095
19,CGCTGTGC,-0.062 ± 0.015
20,CAACATCC,0.0179 ± 0.05
21,CGACAAGC,0.193 ± 0.027
22,CCGGGAGC,-0.208 ± 0.053
23,AGGCTGAG,-0.0655 ± 0.066
24,CCAAAGTA,-0.17 ± 0.014
25,GAAGTTAA,0.0494 ± 0.064

row,Sequence,PBM E-score of 8-mer
1,CAAACCAC,-0.0764 ± 0.046
2,ACATCAAT,-0.0835 ± 0.045
3,AAACCCAG,0.0108 ± 0.055
4,ACATCAAC,-0.103 ± 0.097
5,CCACCAAG,-0.191 ± 0.036
6,AATAACAC,0.339 ± 0.052
7,GACCAAGC,-0.142 ± 0.051
8,ATCAATGC,-0.17 ± 0.0099
9,AACATCCA,0.00814 ± 0.0029
10,GGACAAAC,-0.0524 ± 0.016
11,GAAAAGGA,-0.137 ± 0.031
12,ATAGCCAG,-0.165 ± 0.075
13,CCTGATCG,-0.0604 ± 0.032
14,AAATTGAT,0.111 ± 0.024
15,ATTTGTGA,0.201 ± 0.064
16,TCCTGCCA,0.183 ± 0.019
17,GAGCTAAA,0.0372 ± 0.018
18,ACCTCCAA,0.0365 ± 0.013
19,ATGGAAAA,-0.18 ± 0.071
20,ACGGGTCA,-0.103 ± 0.13
21,AAAGCTTT,-0.081 ± 0.092
22,AGTACGGA,-0.226 ± 0.0099
23,ACTCAGAC,0.0474 ± 0.069
24,AAAACAGT,-0.172 ± 0.018
25,ACAGCCCG,0.0265 ± 0.039

row,Sequence,PBM E-score of 8-mer
1,ATAGTCTC,-0.045 ± 0.035
2,ACGCCTTG,0.283 ± 0.03
3,AGTCTGAA,-0.179 ± 0.0018
4,AGAGAGAA,-0.0727 ± 0.0041
5,AAAAGGCC,-0.138 ± 0.02
6,CTGATGGA,-0.137 ± 0.059
7,CCGGCTGC,-0.125 ± 0.1
8,CAATAAAA,-0.0746 ± 0.04
9,AATCTCTG,-0.131 ± 0.068
10,AGAGGAAA,0.0946 ± 0.058
11,CTGTAGAA,-0.127 ± 0.037
12,GAGTCAGA,-0.238 ± 0.018
13,CCAATTAA,0.00263 ± 0.015
14,AAAAACGG,-0.0215 ± 0.026
15,AGTGTTAA,0.433 ± 0.017
16,AACTCCGA,-0.0873 ± 0.035
17,ACTAACAG,0.216 ± 0.045
18,ACACAGAG,-0.0201 ± 0.079
19,CCGTTATA,-0.0748 ± 0.038
20,ATGCATTA,-0.11 ± 0.13
21,GATAGCAA,0.202 ± 0.052
22,AGGACAAT,-0.237 ± 0.13
